Assay results as given in publication PMC4336329 (PLoS ONE, 2015).
The whole screen tested about 310,000 compounds, of which about 14,000 (4.5%) showed an effect of 50% or more. Effects have a minus sign here. Some of the results follow.
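Also: peak tail current of the secondary pulse compared with the same well before compound.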

These compounds were tested against human ether-à-go-go-related gene (hERG) potassium channel (human, UniProt Q12809) (assay: primary screen, population patch clamp on CHO cells stably expressing hERG).
Sequence of human ether-à-go-go-related gene (hERG) potassium channel (Q12809 whole entry, looked up): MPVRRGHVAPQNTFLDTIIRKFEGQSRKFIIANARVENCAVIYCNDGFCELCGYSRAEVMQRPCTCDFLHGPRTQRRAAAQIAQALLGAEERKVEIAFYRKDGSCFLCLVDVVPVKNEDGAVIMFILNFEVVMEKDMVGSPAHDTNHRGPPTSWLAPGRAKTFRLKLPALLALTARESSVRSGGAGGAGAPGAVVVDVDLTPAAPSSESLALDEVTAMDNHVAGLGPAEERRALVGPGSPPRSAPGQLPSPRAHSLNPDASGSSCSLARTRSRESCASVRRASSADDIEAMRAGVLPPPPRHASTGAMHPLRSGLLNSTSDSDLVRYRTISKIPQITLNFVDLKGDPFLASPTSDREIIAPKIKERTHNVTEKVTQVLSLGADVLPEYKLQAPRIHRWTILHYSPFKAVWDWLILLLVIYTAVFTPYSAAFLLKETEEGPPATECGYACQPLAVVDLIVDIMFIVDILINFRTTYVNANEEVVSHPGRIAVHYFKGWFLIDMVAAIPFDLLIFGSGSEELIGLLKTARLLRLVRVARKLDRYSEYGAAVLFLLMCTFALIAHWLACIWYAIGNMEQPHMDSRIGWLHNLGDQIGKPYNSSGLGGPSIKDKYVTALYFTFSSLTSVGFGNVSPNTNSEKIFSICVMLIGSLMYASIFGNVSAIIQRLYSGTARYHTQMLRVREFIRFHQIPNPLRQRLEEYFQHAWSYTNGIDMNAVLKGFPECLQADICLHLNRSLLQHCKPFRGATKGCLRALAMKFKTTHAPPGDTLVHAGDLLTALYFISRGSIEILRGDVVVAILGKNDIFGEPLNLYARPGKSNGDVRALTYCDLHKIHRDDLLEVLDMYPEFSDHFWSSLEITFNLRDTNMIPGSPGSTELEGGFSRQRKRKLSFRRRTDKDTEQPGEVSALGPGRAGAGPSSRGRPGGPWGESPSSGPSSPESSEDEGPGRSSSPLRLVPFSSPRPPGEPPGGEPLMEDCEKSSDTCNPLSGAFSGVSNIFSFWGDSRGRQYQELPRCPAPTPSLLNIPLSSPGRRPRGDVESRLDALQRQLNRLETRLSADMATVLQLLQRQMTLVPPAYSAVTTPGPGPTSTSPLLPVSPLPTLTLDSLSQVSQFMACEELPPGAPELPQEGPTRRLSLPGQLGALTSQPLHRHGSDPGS
In the case of `Cc1ccc(C)c(S(=O)(=O)N2CCN(Cc3cc4c(cc3O)OCO4)CC2)c1`, the “hERG current change (%, negative = inhibition) at 10uM” value is reported as 3.4%. In the case of `Cc1ccc(NC(=O)CSc2nnc(N)s2)c([N+](=O)[O-])c1`, the “hERG current change (%, negative = inhibition) at 10uM” value is reported as 15.6%. For `Cc1ccc(C)c2c1[nH]c1ccccc12`, the “hERG current change (%, negative = inhibition) at 10uM” value was 6.67%. With `COC(=O)c1oc2ccc(Br)cc2c1NC(=O)CCCN1C(=O)c2ccccc2C1=O` the “hERG current change (%, negative = inhibition) at 10uM” value was 17.1%. For `NC(=O)c1nsc(C(=O)N(CC(=O)NCc2ccccc2)c2cccc(F)c2)c1N`, the “hERG current change (%, negative = inhibition) at 10uM” value was -12.4%. `C=CCn1c(SCC(=O)N2CCCC2)nc2scc(-c3cccs3)c2c1=O` was tested, and the “hERG current change (%, negative = inhibition) at 10uM” value was -13.4%. For `O=C(Nc1nnc(SCc2ccc(F)cc2)s1)C1Cc2ccccc2CN1C(=O)c1ccco1` (centres unmarked), the “hERG current change (%, negative = inhibition) at 10uM” value was -6.55%. With `CC(OC(=O)c1ccc2c(c1)OCCO2)C(=O)c1ccccc1` (centres unmarked) the “hERG current change (%, negative = inhibition) at 10uM” value was 4.44%. For `CCOC(=O)C1=CC[C@H]2c3c(c4ccccc4n3C)C(=O)C1N2S(=O)(=O)c1ccc(C)cc1`, the “hERG current change (%, negative = inhibition) at 10uM” value was -4.05%. With `COCC(C)NC(=O)c1ccc2nc(-c3ccccc3)c(-c3ccccc3)nc2c1` (centres unmarked) the “hERG current change (%, negative = inhibition) at 10uM” value was 9.84%. `C[C@H](C(=O)CC(=O)OC(C)(C)C)[C@H](O)c1ccc(C(F)(F)F)cc1` was tested, and the “hERG current change (%, negative = inhibition) at 10uM” value was 8.11%. `COc1ccc(C(CC(=O)N2CCCC(C)C2)c2c(O)cc(OC)cc2OC)cc1` (centres unmarked) was tested, and the “hERG current change (%, negative = inhibition) at 10uM” value was 7.15%. In the case of `CC(C)CCN1C(Nc2ccccc2)=NC[C@@H]1Cc1ccccc1`, the “hERG current change (%, negative = inhibition) at 10uM” value is reported as -47.9%. In the case of `CC1CCCC(C)N1C(=O)c1cc(F)c(F)cc1Cl` (centres unmarked), the “hERG current change (%, negative = inhibition) at 10uM” value is reported as 16.1%. With `Cc1cccc(NC(NC(=O)Cc2ccccc2)C(Cl)(Cl)Cl)c1` (centres unmarked) the “hERG current change (%, negative = inhibition) at 10uM” value was 4.08%. In the case of `Cc1nc2nc(CSc3ccc(Cl)cc3)cc(=O)n2[nH]1`, the “hERG current change (%, negative = inhibition) at 10uM” value is reported as 9.76%. For `COc1ccc(Cc2[nH]n3c(=O)cc(C(C)C)nc3c2-c2ccccc2)cc1`, the “hERG current change (%, negative = inhibition) at 10uM” value was 7.6%. `COc1ccc(NC(=O)C2CCCN2S(=O)(=O)c2ccc3c(c2)CCC(=O)N3)cc1` (centres unmarked) was tested, and the “hERG current change (%, negative = inhibition) at 10uM” value was -31.1%. With `COC(=O)c1cc(NS(=O)(=O)c2cccc(Cl)c2)ccc1N1CCOCC1` the “hERG current change (%, negative = inhibition) at 10uM” value was 2.66%. `Cc1cc(C)n(-c2ccc(F)cc2)c(=O)c1C(=O)O` was tested, and the “hERG current change (%, negative = inhibition) at 10uM” value was -9.32%. `COc1ccc(CCNC(=O)C(CC(C)C)NC(N)=O)cc1` (centres unmarked) was tested, and the “hERG current change (%, negative = inhibition) at 10uM” value was 9.22%. For `CC(C)CCNC(=O)CCn1nc(-c2ccc(Cl)cc2)ccc1=O`, the “hERG current change (%, negative = inhibition) at 10uM” value was -54.6%. With `O=C(CSc1nc(-c2ccco2)cc(C(F)(F)F)n1)Nc1ccc(C(=O)N2CCCCC2)cc1` the “hERG current change (%, negative = inhibition) at 10uM” value was -27%. `COc1ccc(CN(CC2CCC(C(=O)O)CC2)C(=S)Nc2cccc(C)c2)cc1` (centres unmarked) was tested, and the “hERG current change (%, negative = inhibition) at 10uM” value was -2.44%. With `COc1ccc(C(=O)N/N=C(\C)CC(=O)Nc2ccccn2)cc1OC` the “hERG current change (%, negative = inhibition) at 10uM” value was 10.6%. For `Cc1ccn(CCC(=O)N2CCCC(CCC(=O)NCc3ccc(F)c(F)c3)C2)n1` (centres unmarked), the “hERG current change (%, negative = inhibition) at 10uM” value was 4.14%. In the case of `COc1ccc(CC(=O)Nc2oc(-c3ccccc3)c(-c3ccccc3)c2C#N)cc1OC`, the “hERG current change (%, negative = inhibition) at 10uM” value is reported as 10.7%. With `CCc1cc(C(=O)OC)c(NC(=O)CCCC(=O)O)s1` the “hERG current change (%, negative = inhibition) at 10uM” value was 17.6%. In the case of `CCOC(=O)C(C)(C)Sc1ncnc2nc[nH]c12`, the “hERG current change (%, negative = inhibition) at 10uM” value is reported as 2.36%. `O=C(N/N=C/c1ccc(OC(=O)c2ccccc2)cc1)c1cccc(O)c1` was tested, and the “hERG current change (%, negative = inhibition) at 10uM” value was 15.4%. `NC(=O)c1cc2c3ccccc3ccn2c1-c1ccccc1` was tested, and the “hERG current change (%, negative = inhibition) at 10uM” value was 4.48%. `CCOC(=O)C(O)(c1ccc(NC(=O)c2ccc(Cl)c(Cl)c2)cc1)C(F)(F)F` (centres unmarked) was tested, and the “hERG current change (%, negative = inhibition) at 10uM” value was -4.61%. `COc1cc(Br)cc2cc(C(=O)OC3CCN(C)CC3)c(=O)oc12` was tested, and the “hERG current change (%, negative = inhibition) at 10uM” value was -10.1%. With `CCOc1ccc(CNC(=O)NS(=O)(=O)c2ccc(OC)cc2)cc1` the “hERG current change (%, negative = inhibition) at 10uM” value was 24.5%. In the case of `O=C(CCc1ccccc1)Nc1cccc([N+](=O)[O-])c1`, the “hERG current change (%, negative = inhibition) at 10uM” value is reported as -20%. With `CC(C)Sc1nc(N2CCOCC2)c2c(c1C#N)CC(C)(C)N(C)C2` the “hERG current change (%, negative = inhibition) at 10uM” value was -25.5%. With `COc1ccccc1-c1c(C)nn2c(N3CCC4(CC3)OCCO4)cc(C)nc12` the “hERG current change (%, negative = inhibition) at 10uM” value was 7.78%. `O=C(Nc1cccc(-c2cn3c(n2)SCC3)c1)c1ccc2ccccc2n1` was tested, and the “hERG current change (%, negative = inhibition) at 10uM” value was 44.5%. In the case of `O=C(O)c1ccccc1C(=O)c1ccc2c(c1)N(Cc1ccc(Cl)c(Cl)c1)C(=O)CO2`, the “hERG current change (%, negative = inhibition) at 10uM” value is reported as 6.25%. With `CCc1nc(OCc2ccccc2)c2sc3nc4c(cc3c2n1)COC(C)(C)C4` the “hERG current change (%, negative = inhibition) at 10uM” value was -1.33%. In the case of `Cc1cc(=O)oc2cc(OCc3ccc(C(=O)OCC(=O)NC4CCS(=O)(=O)C4)cc3)ccc12` (centres unmarked), the “hERG current change (%, negative = inhibition) at 10uM” value is reported as 0.112%. In the case of `O=C(CCNC(=O)Cn1ccc2ccccc2c1=O)NCCN1CCc2ccccc2C1`, the “hERG current change (%, negative = inhibition) at 10uM” value is reported as 4.01%. In the case of `O=C(CSc1nnnn1Cc1ccccc1)N1CCN(c2ccccc2)CC1`, the “hERG current change (%, negative = inhibition) at 10uM” value is reported as -44.1%. With `O=C(COc1ccc(-c2ccccc2)cc1)NNC(=O)Nc1ccccc1` the “hERG current change (%, negative = inhibition) at 10uM” value was -2.73%. `CC1(C)OC(C)(C)/C(=C\c2ccccc2[N+](=O)[O-])C1=O` was tested, and the “hERG current change (%, negative = inhibition) at 10uM” value was -0.461%. `COc1ccc(C2=NS(=O)(=O)N(C)C(C(=O)N3CCCCC3)=C2)cc1OC` was tested, and the “hERG current change (%, negative = inhibition) at 10uM” value was -4.54%. With `CC(=O)Nc1ccc(C(=O)NNC(=O)C2C3CCCCC32)cc1` (centres unmarked) the “hERG current change (%, negative = inhibition) at 10uM” value was -0.576%. With `CCCCn1c(N)c(N(CCC(C)C)C(=O)c2ccc3c(c2)OCCO3)c(=O)[nH]c1=O` the “hERG current change (%, negative = inhibition) at 10uM” value was 15.1%. With `CCn1cc(CNC(=O)CSc2nc(-c3ccc(OC)c(OC)c3)cc(C(F)(F)F)n2)c(C)n1` the “hERG current change (%, negative = inhibition) at 10uM” value was 0.558%. `CC1CC(C)CN(C(=O)c2ccc(N3CC4CC(C3)c3cccc(=O)n3C4)c([N+](=O)[O-])c2)C1` (centres unmarked) was tested, and the “hERG current change (%, negative = inhibition) at 10uM” value was -16%. For `Cc1ccc(C)c(NC(=O)C(OC(=O)c2ccc(C)s2)c2ccccc2)c1` (centres unmarked), the “hERG current change (%, negative = inhibition) at 10uM” value was -1.37%. For `O=[N+]([O-])c1ccc(OCc2nnc(-c3ccccc3)o2)cc1`, the “hERG current change (%, negative = inhibition) at 10uM” value was 5.73%. With `Oc1ccc(Br)cc1/C=N/Nc1ccccn1` the “hERG current change (%, negative = inhibition) at 10uM” value was 18%.
